# Assay results published in PubChem BioAssay AID624296 (National Center for Advancing Translational Sciences (NCATS), 2012).
# The campaign covered roughly 350,000 compounds. About 9,900 (2.8%) were called active. Inconclusive means that the source gave no clear call. Such entries were picked first, then a sample of the others. The call rests on the fitted dose curve; in most records, active means well fitted activation curve with a large enough effect; inconclusive means small, poorly fitted or top-dose-only effect; inactive means no such curve, though single readings can be large or run the other way. No potency is given beside an inconclusive call; the fits are too rough.
# Assay: A quantitative high throughput screen for small molecules that induce DNA re-replication in MCF 10a normal breast cells. Further: nearly all actives have a fitted effect of over 50% in size.
# Conditions: MCF 10A DNA re-replication, Hoechst nuclear intensity, 48 h; series mostly up to 46.1 µM
# Potency means the concentration at half of the fitted maximal effect; tags describe the fitted curve by direction and shape.
row,SMILES,Potency
1,COC(=O)c1ccc(CNC(=O)Cn2cnc3c(NCc4ccccc4)ncnc32)cc1,inactive
2,Cc1cc(SCC(=O)c2cccs2)nc2ccccc12,"inconclusive [activator, single point]"
3,O=C(/C=C/Nc1ccccc1Oc1ccccc1)c1ccco1,active: 14.6 µM
4,O=C(N/N=C/C(Br)=C\c1ccccc1)c1n[nH]c2c1CCC2,"inconclusive [activator, full curve, poor fit]"
5,CCc1nc(SCc2nc3ccccc3[nH]2)c2oc3ccccc3c2n1,"inconclusive [activator, single point]"
6,COc1ccc(C(c2nnnn2CC2CCCO2)N2CCC(C(N)=O)CC2)cc1 (stereo not drawn),inactive
7,NCCCCc1ccc2ccc3cccc4ccc1c2c34,"inconclusive [activator, single point]"
8,COc1ccc(CNC(=O)CC23CC4CC(CC(C4)C2)C3)cc1,"inconclusive [activator, partial curve, poor fit]"
9,Cc1cc(C(=O)CSc2ccc(Cl)cc2)cc(C)c1OC(=S)N(C)C,"inconclusive [activator, single point]"
10,CCCC(=O)N1CCN(c2ccc(NC(=O)c3sc4ccccc4c3Cl)cc2)CC1,"inconclusive [activator, single point]"
11,Cc1cccc(/C=N/NC(=O)c2ccc(NC(=O)c3cccc(Cl)c3)cc2)n1,"inconclusive [activator, single point]"
12,COc1ccc(C(=O)OCC(=O)Nc2cccc(S(=O)(=O)NC3=NCCCCC3)c2)cc1[N+](=O)[O-],inactive
13,O=c1c2cccc3c2c(nn1-c1ccccc1)-c1ccccc1-3,"inconclusive [activator, partial curve, poor fit]"
14,O=C(Nc1ccc2nc3n(c(=O)c2c1)CCCCC3)c1ccccc1Cl,"inconclusive [activator, partial curve, poor fit]"
15,c1ccc2c(-c3csc(-c4ccncc4)n3)c[nH]c2c1,"inconclusive [activator, partial curve, poor fit]"
16,COc1ccc(C)cc1NC(=O)c1sc2ncnc(N3CCN(c4ccccn4)CC3)c2c1C,"inconclusive [activator, partial curve]"
17,COc1ccc2sc(-c3ccc(SC)cc3)c(/C=C/c3ccc(OC)c(OC)c3)c2c1,active: 9.2 µM
18,NC(=O)C1CCN(c2nc(C3CC3)nc3c2nnn3Cc2ccccc2Cl)CC1,active: 20.6 µM
19,CC(=O)Cc1nsc(NC(=O)c2ccc(-c3ccc(F)cc3)o2)n1,"inconclusive [activator, full curve, poor fit]"
20,COc1ccc(Cl)cc1NC(=O)COC(=O)CNC(=O)c1ccc([N+](=O)[O-])c(C)c1,"inconclusive [activator, full curve, poor fit]"
21,CCN(C[C@H]1N[C@@](CC)(C(=O)OC)[C@H]2C(=O)N(Cc3ccccc3)C(=O)[C@@H]12)S(=O)(=O)c1ccc(OC(F)(F)F)cc1,inactive
22,CSc1ccc(CN2CCCN(C)CC2)cc1,"inconclusive [activator, single point]"

row,SMILES,Potency
1,O=C(CCSCc1cccc(Cl)c1)NCCc1ccccc1,inactive
2,Cc1ccc(S(=O)(=O)N2CCN(C(=O)c3nn(C(C)C)c(=O)c4ccccc34)CC2)cc1C,"inconclusive [activator, single point]"
3,COc1ccc(S(=O)(=O)N2CCCC2CNC(=O)C(=O)NCCc2ccccc2)cc1 (stereo not drawn),"inconclusive [activator, partial curve, poor fit]"
4,S=C(NN=C(c1ccccc1)c1ccccn1)N(Cc1ccccn1)Cc1ccccn1,"inconclusive [activator, full curve, poor fit]"
5,CCCCC(=O)N1CCN(c2nc3ccc(F)cc3s2)CC1,inactive
6,O=C(CCc1nnc(CCCc2ccccc2)o1)NCCc1ccccc1,"inconclusive [activator, full curve, poor fit]"
7,COc1ccc(NC(=O)C23CC4CC(CC(Cl)(C4)C2)C3)cc1S(=O)(=O)N1CCOCC1,inactive
8,Cc1cccc(NC(=O)Cc2c(F)cccc2Cl)n1,inactive
9,Brc1ccc(-c2c(-c3ccsc3)sc3ccccc23)cn1,"inconclusive [activator, single point]"
10,Cc1ccc(-c2nc3ccccc3o2)cc1NC(=S)NC(=O)c1cccs1,"inconclusive [activator, full curve]"
11,N#Cc1nc(N)nc(N(c2ccccc2)c2ccccc2)n1,"inconclusive [activator, single point]"
12,O=C(NC1CCCCC1)C(c1ccccc1)N(Cc1ccc2c(c1)OCO2)C(=O)c1cnsn1 (stereo not drawn),"inconclusive [activator, partial curve]"
13,Cc1sc(NC(=O)C2CC=CCC2C(=O)O)c(C(=O)OC(C)C)c1C (stereo not drawn),"inconclusive [activator, single point]"
14,CC(CNC(=O)CCC(=O)N1CCOc2ccc(Cl)cc21)c1ccccc1 (stereo not drawn),"inconclusive [activator, partial curve, poor fit]"
15,CC(C)(C)CC(=O)NC(=S)NCc1ccccc1,"inconclusive [activator, single point]"
16,COc1ccc(CN2CCc3c([nH]c4ccccc34)C2)cc1Br,"inconclusive [activator, single point]"
17,COc1ccc2nc3oc(C(=O)N4CC(C)CC(C)C4)cc3cc2c1 (stereo not drawn),"inconclusive [activator, partial curve, poor fit]"
18,COc1ccc(CCNC(=O)C2CCCN(S(C)(=O)=O)C2)cc1 (stereo not drawn),inactive
19,Cc1ccc(OCC(=O)N2N=C(c3ccc(Cl)cc3)CC2c2ccco2)c([N+](=O)[O-])n1 (stereo not drawn),inactive
20,Cc1ccccc1N1CCN(Cc2ccc([N+](=O)[O-])o2)CC1,inactive
21,Cc1ccc(S(=O)(=O)N(C)C[C@H]2Oc3c(NC(=O)Nc4cccc5ccccc45)cccc3C(=O)N([C@@H](C)CO)C[C@@H]2C)cc1,inactive
